# Laboratory results as given in the supplement of paper PMC11417369.
# The other results are listed elsewhere or left out.
# Test system: PfSIP2 AP2 domain 1 (GST-tagged)
# Assay: gcPBM binding intensity (ln(normalized median fluorescence intensity)); higher = stronger DNA binding
# Outline: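 GST-fused DNA-binding domains of P. falciparum, expressed in E. coli, were applied at about 25 μg on average for 1 h to an Agilent 4 × 180k array of primer-extended double-stranded 36-bp intergenic genomic probes and negative controls. Binding intensity is the highest Masliner-normalised natural-log median intensity across replicate spots of either probe orientation, measured with Alexa488 anti-GST antibody and a 488 nm scan.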
row,Sequence,gcPBM binding intensity (ln)
1,AGGTACTTTTTTAAAACACACATATAATATATACAC [CACACA_site1065],7.24
2,GATGGAAGGTGAAAGCGTACTTATTATAGTAATATA [XGTACX_site303],6.85
3,TGTAATAATCTTACATGTACATACATATATTATATA [XGTACX_site4012],7.33
4,TACATTCATGTGTATTGTACAAACTATTTTATAATA [XGTACX_site7744],6.85
5,TATATAATATATATAGTGCATAAGTTCAAAAGAATA [GTGCAC_site9805],8.73
6,GCATATTTTATAATTTTACACACCATATAAAATAAT [CACACA_site8904],7.2
7,TACATATTTTTTATGTGTACATATTTTTTATGTGTA [XGTACX_site443],7.14
8,ACAATCCTAACGACATGTACAAATATATATATTTTT [XGTACX_site7335],7.09
9,AGAAGTTTAAAAAGCACACAAAAAAAAAAAAAAAGA [CACACA_site3309],6.85
10,AAATAAAATAAAAACATGCACACTTTATTTTTTTTA [CACACA_site2800],8.9
11,AAAATCGTGTTCTGAATACACACTAATACAAAGTTG [CACACA_site3985],6.85
12,ATTCATATATATTATACACACACATATATAAATATA [CACACA_site8228],7.4
13,AAAAATACCTGAATATGTACATATGATCAATGGGCC [XGTACX_site887],6.98
14,TAAAAATATAAATTTTGTACGTAAAAAATGGTTCTT [XGTACX_site1506],6.98
15,TATTCTATATAATAATGTACGTGATTTAAATTTTCA [XGTACX_site6650],6.98
16,TGACCGTTTTAAGAGTGTACAAAAAAAAAAAAAAAA [XGTACX_site4141],7.04
17,ATTCACATACATTACTTACACACCATATTAATATAT [CACACA_site459],7.43
18,TAAAAAATAAGATATACACACATATATATATATATA [CACACA_site2324],9.42
19,TAACATATTAATAACATATTTATAATATATTAATAA [TGCATGCA_negctrl_site243],6.67
20,AAAAAAAAAAAAAAGGAACACACAAGTAACAATAAA [CACACA_site8792],7.09
21,AATTATACTTCCTTCACACAGTTACATCATATATTA [CACACA_site5942],7.09
22,TTCAAATTGTTTATATGTACTTATAAAAATTGTCTG [XGTACX_site977],7.1
23,AGACCTTTAATTTGTGTGCACATAATTAGTGTACAT [GTGCAC_site9434],8.49

row,Sequence,gcPBM binding intensity (ln)
1,ATTAAAAAAAAAAAAAGTACTTATAATTATACTCGT [XGTACX_site4852],7.05
2,TTATATTATATATATGTGCACATTTTTAAACTTGGA,8.77
3,ACAAATAAAAATATTACACACACTATTATATTGATA [CACACA_site1494],7.05
4,GGAAGATGAAAAATAAAGCATGTGCTGTACAAACGA [CACACA_negctrl_site1625],6.82
5,AAATATTTATATGTTACACACTGTTGATAATTTTCT [CACACA_site1347],6.68
6,AAAAATATTTTGGTTTGTACATATATTTTTACAATA [XGTACX_site8691],7.02
7,ACTTATTTCGATATGTGTACTTAATATATATATTTA [XGTACX_site6616],7.24
8,ATTTTTGTAATTATTTGTACACATTTATTTATGTGT [XGTACX_site1864],7.03
9,AAATATATGAATAAATGTACGAAATGAATGGATGAA [XGTACX_site7108],7.19
10,AAACATGTATTTTATTGTACACATTCATAAATCACA [XGTACX_site1420],7.19
11,TTATAATCTTATATATGTACATATATATATTATTAT [XGTACX_site7780],6.96
12,TACATGTATGTAATATGTTTTATTTTTTTCATCTCT [XGTACX_negctrl_site79],6.7
13,TTAATTAGAAATCATACACACATATATATATATATA [CACACA_site173],9.57
14,CATTCAAACAAAAAAAGTACTCATCACATAATATAT [XGTACX_site1251],7.08
15,GAAATGTACAAATACGTACACACATATATATATATA [CACACA_site1541],9.07
16,AAAAAAAAAAAAAAACTTACGATTTTAAAAAGATGG [GTGCAC_negctrl_site291],7.3
17,TTTATATTGTTTTATTGTACATATATATTTATACAT [XGTACX_site6821],7.16
18,ATATATTTATAATACACATGCAATGATATAATATAT [TGCATGCA_site20],6.87
19,CATATATACATATATACACACATATATATATATATA [CACACA_site645],9.52
20,GTAAGAAAGAAAGGAAGTACGTAAGAAAGTAAGAAC [XGTACX_site1239],7.27
21,GTGTGGTTACAGACACGAACACATTTTTTAAATATT [CACACA_negctrl_site83],6.96
22,TATATATATTATATAGTGCATTGAAGAAGGGGATTT,8.42
23,TTTTTTTTTCTGTGAGTGCATGTAATAAAATAAATT [GTGCAC_site9740],9.49

row,Sequence,gcPBM binding intensity (ln)
1,CATATTTGTTGACACACACACATATTTATATAAATA [CACACA_site7648],7.21
2,TTTATATGTTTAAAATGTACATGTGGTAAAAATTTT [XGTACX_site5907],7.19
3,GGGAGGATATTACACAGTACCCAGAAAATCTACGGA [XGTACX_site2551],6.92
4,TATTCCTTATTATAATTCTTAAATAAAAAAAAAAAA [TGCATGCA_negctrl_site45],7.1
5,CCCATTATTGTTGGGGGTACAATTTTGAATATATAT [XGTACX_site2227],8.04
6,ATATATAAACTGAAGGGTACAATGAAAAAAGAACTT [XGTACX_site7219],7.08
7,TAGGATTTTTAGTTTATTGTAACTATTATTTTATTT [CACACA_negctrl_site829],6.72
8,ATAAATAAAATTAGGTGTACTTTAATTAAAGAAAAT [XGTACX_site3319],7.4
9,TATACATATATAATATGTACATATATTTTTTTTTAA [XGTACX_site2938],6.83
10,CATAAAAATATTTTCTGTACATATTCATATGACGTT [XGTACX_site3406],7.13
11,ATAAATATTGGGTGCACACACATAATATATATATAT [CACACA_site2272],12.2
12,AGGTTCCCAAAATGCACACCAATGAAATTATTTATT [CACACA_site553],7.21
13,AAAATAAAAAATATAACACACAATAAATATATATAT [CACACA_site1926],8.6
14,ATTTCCTGGCTACTGTGTACTGACCTCCAGACTGCT [XGTACX_site2005],6.65
15,TTTTAACTTTTATATTGTACGTTGTTTATTTTATTT [XGTACX_site7504],7
16,GAAAAAAAAAAAAAAAAAAAAAAATTCATTTTTTTT [XGTACX_negctrl_site54],6.88
17,ATAATCATTTGGATATTCACAATATTTAAAATTAAA [CACACA_negctrl_site909],6.86
18,TATACAAAATAACTAGCACACATATGTATAAACATA [CACACA_site9236],6.9
19,ATATGTATTAAGTGTACACATATAATGTATTTTGTT [CACACA_site4177],7.23
20,TCATAATGAAAACAAGCACACATACATAAAATAAAA [CACACA_site9069],7.01
21,TTATTTACCATCTCTACACACAAAAATTGATGTAGA [CACACA_site2811],6.95
22,TAAATTATATTATGCACACTTAAAAATATATTTAAC [CACACA_site3512],9.01
23,ATATGTAATAATAAATGTACGAAACATTGAACGATG [XGTACX_site1266],7.16

row,Sequence,gcPBM binding intensity (ln)
1,TTTTTATATATCACGTGTACATATTTATTTTTACTC [XGTACX_site8049],7.06
2,GAATCATCCAAAATTGCATGCAAGGAAGAAGAAAAA [TGCATGCA_site764],6.87
3,CGTATGAAACATATATGTACTTATAAAAATATAACC [XGTACX_site7539],7.15
4,TTATAAATATAATATTGTACAAAATTTTAACATGTC [XGTACX_site5259],6.97
5,CTTATGTGTATAAGTAGTACTAAATTAAAATAATAT [XGTACX_site2681],7.14
6,AAATCACCTTAAGAACGTACAAACAGAAAAAAATTA [XGTACX_site4623],6.92
7,TTTATTATATTTATATGTACTTATATAATATATGCA [XGTACX_site1906],7.29
8,TGTTTGAATAACAAAAAAAAAAAAAAAATTAAAAAA [CACACA_negctrl_site1332],6.79
9,ATTTTAAATGTTATGCGTACATATTAATCCTACTTA [XGTACX_site1344],7.57
10,TTTTAAAAATCTATATGTACACAATACGTCTATAAA [XGTACX_site5787],7.03
11,AAAAAAAAAAAAAACACACAAACGCTTTTTTTTTTT [CACACA_site686],7.26
12,TATGAAAATGTTCATACACACATAAAAAAAAAAAAA [CACACA_site3236],6.91
13,TACACATACACATACACACGCATAGAAACATACGAA [CACACA_site2137],7.29
14,TTTTAAATATGCAGATGTACATTATAATGTTTTATT [XGTACX_site2079],7.07
15,TACATATTTTTATATACACACAATAATTATTATAAA [CACACA_site1659],7.17
16,GATATGTACTAATACACACACATATAGATTTATATA [CACACA_site6610],7.23
17,TATATTTATTATAACACACACATATATATATTATAT [CACACA_site1061],7.29
18,AGGCATAATTAAAAGTAACAATTATGGAAACGGAGT [GTGCAC_negctrl_site623],7.19
19,TTTATTTATTATTAAAGTACTAAATTATATTATTAT [XGTACX_site2565],6.92
20,AAAAAAAAAAAAAACACACACATGCACCTCATATTA [CACACA_site556],11.4
